From article PMC7699638, “Ligand-induced conformational rearrangements regulate the switch between membrane-proximal and distal functions of Rho kinase 2” (Communications Biology, 2020)

Biological target: T1, MBP-ROCK2 (full-length ROCK2 with N-terminal MBP tag) (human, UniProt O75116 1-1388)
T1 construct: human ROCK2, residues 1-1388 (synthetic gene), in vector pONE30A; also called MBP-ROCK2 fusion protein; fusion variant; not shown: MBP, N-terminal, kept
Assay: SAXS; MBP-ROCK2 with 1.5× molar excess of GppNHp-bound RhoA; 25 mM HEPES pH 7.4, 25 °C; Rg and molecular mass from Guinier analysis
Settings: both partners purified

T1 sequence (O75116 whole entry, the tested form may be a part): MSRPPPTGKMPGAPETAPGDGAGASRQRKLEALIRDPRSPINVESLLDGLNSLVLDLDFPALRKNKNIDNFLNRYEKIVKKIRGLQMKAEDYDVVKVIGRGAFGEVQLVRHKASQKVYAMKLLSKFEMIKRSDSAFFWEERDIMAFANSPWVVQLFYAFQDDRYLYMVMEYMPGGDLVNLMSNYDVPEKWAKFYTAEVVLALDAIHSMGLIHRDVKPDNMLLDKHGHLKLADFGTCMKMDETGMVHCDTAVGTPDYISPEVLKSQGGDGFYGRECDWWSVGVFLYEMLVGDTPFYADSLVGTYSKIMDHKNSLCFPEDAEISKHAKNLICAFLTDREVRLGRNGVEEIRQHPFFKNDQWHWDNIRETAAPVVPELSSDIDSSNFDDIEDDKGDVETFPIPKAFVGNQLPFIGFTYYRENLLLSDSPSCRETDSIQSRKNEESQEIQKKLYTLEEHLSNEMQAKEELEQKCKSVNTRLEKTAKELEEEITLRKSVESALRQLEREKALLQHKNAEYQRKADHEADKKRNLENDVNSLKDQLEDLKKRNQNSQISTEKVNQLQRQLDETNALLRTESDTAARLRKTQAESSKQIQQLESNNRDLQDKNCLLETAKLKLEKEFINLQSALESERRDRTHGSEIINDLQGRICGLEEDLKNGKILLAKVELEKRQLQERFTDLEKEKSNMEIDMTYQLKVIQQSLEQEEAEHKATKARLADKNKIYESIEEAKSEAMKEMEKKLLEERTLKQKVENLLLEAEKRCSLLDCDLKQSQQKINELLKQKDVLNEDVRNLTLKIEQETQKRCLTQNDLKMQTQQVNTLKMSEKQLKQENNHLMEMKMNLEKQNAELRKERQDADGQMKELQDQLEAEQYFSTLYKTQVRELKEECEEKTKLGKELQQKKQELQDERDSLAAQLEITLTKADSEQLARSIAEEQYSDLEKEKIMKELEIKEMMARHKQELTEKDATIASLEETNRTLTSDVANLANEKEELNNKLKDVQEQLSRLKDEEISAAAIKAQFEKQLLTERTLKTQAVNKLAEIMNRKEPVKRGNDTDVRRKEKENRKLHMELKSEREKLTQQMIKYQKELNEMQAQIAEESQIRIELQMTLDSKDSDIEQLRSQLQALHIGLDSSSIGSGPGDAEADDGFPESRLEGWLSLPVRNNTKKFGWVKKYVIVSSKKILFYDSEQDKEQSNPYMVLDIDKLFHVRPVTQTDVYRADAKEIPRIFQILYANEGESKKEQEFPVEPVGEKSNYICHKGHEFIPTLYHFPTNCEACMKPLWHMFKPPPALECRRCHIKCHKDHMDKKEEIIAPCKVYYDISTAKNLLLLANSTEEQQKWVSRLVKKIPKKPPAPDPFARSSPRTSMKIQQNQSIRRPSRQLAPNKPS

binding result: binds
B1: RhoA ([…]), His-tagged (domain or fragment)
chain: not shown
notes: human RhoA, […] (synthetic gene), in vector pONE10K; Loaded with BODIPY-GTP in the size exclusion experiment and with GppNHp in SAXS and the activity assays; also called RhoA(GppNHp); not shown: His6, C-terminal, kept
